Hit rate of the full screen: of about 45,000 compounds, about 65 (0.1%) were called active. Calls follow the shape of the dose curve; as a rule, active = well fitted activation curve with a large enough effect; inconclusive = small, poorly fitted or top-dose-only effect; inactive = no such curve, though single readings can be large or run the other way. This is one part of the list.
target: Galactocerebrosidase (Homo sapiens) (UniProt P54803); assay: A Novel Cell-Based Assay to Identify Small Molecules for B -Galactocerebrosidase; settings: 145M-Twi-hGALC-G270D cells (Twitcher mouse brain line with human GALC G270D), HMU-beta-Gal fluorescence, 48 h; series mostly up to 57.5 µM; activation: at the top concentration; also: 0% is about no effect; nearly all actives have a fitted effect of over 65% in size
Outline: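 Brain-derived Twitcher mouse 145M-Twi cells stably expressing human GALC-G270D or wild-type GALC, treated live, then residual GALC activity read by fluorescence of HMU-b-Gal substrate (0.1 mM final) in citrate-phosphate buffer pH 5.2 with sodium taurocholate. Signal increase indicates enhancement.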

Chain of UniProt P54803 (P54803 whole entry, looked up): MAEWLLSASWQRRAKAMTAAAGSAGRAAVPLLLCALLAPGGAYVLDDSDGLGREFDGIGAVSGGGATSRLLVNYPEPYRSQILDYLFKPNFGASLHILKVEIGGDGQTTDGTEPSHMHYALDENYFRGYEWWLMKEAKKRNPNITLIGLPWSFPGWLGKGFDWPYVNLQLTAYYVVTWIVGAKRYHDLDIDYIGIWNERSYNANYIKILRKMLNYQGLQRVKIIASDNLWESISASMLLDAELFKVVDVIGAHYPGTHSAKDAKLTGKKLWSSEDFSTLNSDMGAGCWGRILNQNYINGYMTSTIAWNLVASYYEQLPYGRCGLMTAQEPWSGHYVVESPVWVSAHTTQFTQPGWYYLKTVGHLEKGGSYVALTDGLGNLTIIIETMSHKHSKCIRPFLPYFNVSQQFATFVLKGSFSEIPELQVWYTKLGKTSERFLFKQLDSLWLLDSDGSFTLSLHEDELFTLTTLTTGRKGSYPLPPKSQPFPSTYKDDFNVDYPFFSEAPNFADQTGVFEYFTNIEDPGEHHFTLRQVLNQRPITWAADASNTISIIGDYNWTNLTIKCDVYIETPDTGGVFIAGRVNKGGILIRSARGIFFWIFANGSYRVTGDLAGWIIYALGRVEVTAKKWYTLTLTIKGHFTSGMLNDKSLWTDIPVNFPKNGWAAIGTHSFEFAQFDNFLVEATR

activation, inactive:
CCOC(=O)c1cc(S(=O)(=O)Nc2cc(C)c(Cl)cc2OC)[nH]n1 -3.1%
Cn1ccc2c(OCC(=O)NCc3ccc(F)cc3)cccc2c1=O -11.4%
CCOC(=O)c1cc(-c2ccccc2)n(CC(=O)Nc2cc(Cl)c(OC)cc2OC)c1C 4.91%
Cc1cc(C)cc(Nc2ncnc3sc4c(c23)CCCC4)c1 3.31%
CC(C)OCCCNC(=O)c1c2c(nc3ccccc13)C(=O)N(C1CCCCC1)C2 -17%
Cc1ccn2c(Nc3ccc(C(C)C)cc3)c(-c3ccsc3)nc2c1 -5.72%
Cc1cccc(Cn2c(CNC(=O)c3ccccc3)nc3ccccc32)c1 -14.5%
CC(=O)c1ccc(NC(=O)CSc2nnc(NC(=O)NC3CCCCC3)s2)cc1 -6.11%
CCCCCOc1ccccc1Cn1c(=O)oc2ccc(C)cc21 -0.856%
Cc1ccc(Nc2c(-c3ccc(N4CCOCC4)cc3)nc3ncccn23)c(C)c1 -7.47%
COCCNC(=O)CCSc1nc(-c2ccc(OC)cc2)cc(C(F)(F)F)n1 -5.27%
Cc1nn(C(C)C(=O)Nc2cccc(F)c2)c(=O)c2c1sc1ccccc12 (stereo not drawn) 2.3%
O=C(Cn1c(-c2cccs2)cc2ccccc21)NCCCN1CCN(c2ccc(F)cc2)CC1 -2.93%
CC1CCCN(Cc2c(O)ccc3c(=O)c(-c4ccccc4Cl)c(C(F)(F)F)oc23)C1 (stereo not drawn) 3.49%
O=C(NC1CCCC1)c1ccc(CSc2nc3cccnc3n2Cc2ccccc2F)cc1 -6.75%
Cc1ccccc1C(OCCN(C)C)c1ccccc1 (stereo not drawn) 7.98%
O=C(COc1ccc(Cl)cc1)N(Cc1ccco1)c1ccccn1 14.4%
Cc1cc(C)c(NS(=O)(=O)c2ccc3c(c2)NC(=O)CCS3)c(C)c1 -2.95%
Cc1c(I)c(=O)n(-c2ccccc2)n1C -12%
Cc1ccc(NC(=O)CCCN2C(=O)COc3ccc(C)cc32)c(Cl)c1 -4.85%
CCOC(=O)c1cnc2ccc(OC(F)(F)F)cc2c1Nc1ccccc1C(=O)O 2.12%
CCC1Oc2ccc(C)cc2N(CC(=O)NCCc2ccccc2)C1=O (stereo not drawn) -9.71%
COc1ccc(-c2cnc(C)o2)cc1S(=O)(=O)Nc1cccc(C(F)(F)F)c1 -7.36%
O=C(Nc1cccc(C(F)(F)F)c1)C1CCN(S(=O)(=O)c2cccc3nsnc23)CC1 5.95%
CCOC(=O)c1cnn2c(C(F)(F)F)cc(-c3ccc(Br)cc3)nc12 -0.891%
CCc1ccccc1NS(=O)(=O)c1ccc2[nH]cc(C(=O)NC3CCCC3)c(=O)c2c1 -4.56%
NC(=O)C1CCN(c2ncnc3c2cnn3-c2cccc(Cl)c2)CC1 -12.4%
CC(C)COc1ccc(C(=O)Nc2onc3c2CCCC3)cc1 13.8%
Cc1ccc(NC(=O)Cn2nc(C(F)(F)F)c3c2CCC3)cc1C -7.41%
CCOc1ccc(CCNC(=O)CCn2c(=O)c3cccn3c3ccc(F)cc32)cc1 0.477%
O=C(Nc1ccc(OCc2cc(=O)n3c4c(sc3n2)CCCC4)cc1)c1ccc(F)cc1 -11.2%
COc1ccc(-n2nnnc2SCC(=O)NCCc2ccccc2)cc1 -13.2%
Cc1ccccc1-c1noc(CSc2nc(-c3ccc(F)cc3)cc(=O)[nH]2)n1 5.96%
COC(=O)Cc1c(C)c2ccc3c(c2oc1=O)CN(Cc1ccc(C)cc1)CO3 -19.8%
CCc1ccc(N2CC(c3nc4ccccc4n3Cc3ccccc3C)CC2=O)cc1 (stereo not drawn) -30%
CCOc1ccc(C(=O)NCCc2sc(-c3cccc(F)c3)nc2C)cc1OCC -10.9%
Cc1cccc(CNC(=O)CCCN2C(=O)c3cccnc3Oc3ccccc32)c1 -7.83%
COc1ccc(-c2noc(-c3ccc(NCc4ccco4)c([N+](=O)[O-])c3)n2)cc1OC 0.933%
O=C(CSc1oc(-c2cccs2)nc1S(=O)(=O)c1ccccc1)Nc1ccc(F)cc1 -8.83%
CN(C(=O)CSc1nc2ccc(NC(=O)c3ccccc3)cc2s1)c1ccccc1 -32.4%
COc1ccc(Cn2c(NCC(C)C)nc3c2c(=O)n(C)c(=O)n3C)cc1 -14.5%
Cc1ccc(C2=NN(CCC(=O)NCCc3cccc(C)c3)C(=O)CC2)cc1 11.2%
CCOC(=O)CSc1nc(-c2ccc(OC)cc2)cc(C(F)(F)F)c1C#N -6.52%
COc1cc(CN(C(=O)c2ccc(C)cc2)c2ccccn2)cc(OC)c1OC -26.2%
Cc1ccc(-n2nc(C)c3c(C(=O)Nc4ccc(C)cc4Cl)cc(C)nc32)cc1 -9.99%
COc1ccc(OC)c(CNC(=O)c2cnc(N(C)C)nc2)c1 -8.19%
CC(=O)Nc1cccc(-c2nnc(SCC(=O)c3ccc([N+](=O)[O-])cc3)o2)c1 -14.8%
CCOc1ccccc1/C=C/c1onc(C)c1S(=O)(=O)N1CCC(C(=O)N2CCCCC2)CC1 -10.6%
COc1ccc(C(=O)CC2(O)C(=O)N(CCc3ccccc3)c3ccc(Br)cc32)cc1OC (stereo not drawn) -5.84%
O=S(=O)(c1ccc2nc(Nc3ccc(Br)cc3F)ccc2c1)N1CCCC1 0.563%
COc1ccc(-n2nc(C(=O)N3CCN(c4cccc(C)c4)C(C)C3)c3c4ccccc4n(C)c3c2=O)cc1Cl (stereo not drawn) -9.42%
O=C(Cn1nc2c(cc1=O)CCCC2)NCc1ccccc1 -7.33%
Cc1ccccc1-c1noc(-c2ccc(NC3CCCC3)c([N+](=O)[O-])c2)n1 -2.28%
COc1cccc(-n2c(=O)c3c4c(sc3n(Cc3ccccc3C#N)c2=O)CCCC4)c1 -17.5%
O=S(=O)(NCC(c1ccco1)N1CCOCC1)c1ccc(Br)cc1 (stereo not drawn) -8.03%
Cc1ccccc1-c1ccnc2[nH]n(-c3ccccc3)c(=O)c12 -5.53%
Cc1ccccc1NC(=O)c1cn(-c2ccccc2)nc1-c1ccccc1 -5.15%
COc1ccc(OC)c(CN2CCN(S(=O)(=O)c3ccccc3)CC2)c1 -15.4%
O=C(NCCc1ccccc1)c1ccc2nc(N3CCCCC3)sc2c1 -12.2%
CCOc1ccc(NC(=O)c2sc3nc4c(c(-c5ccccc5)c3c2N)C(=O)CC(C)(C)C4)cc1 -7.02%
CCCn1c2ccccc2c2cnn(CC(=O)NCCCN3CCCCC3)c(=O)c21 -10.7%
OCC(O)CS (stereo not drawn) -16.3%
CCOc1cc(C2C(C(=O)OC)=C(C)NC3=C2C(=O)c2ccccc23)ccc1OC (stereo not drawn) -11.6%
Cc1ccc(S(=O)(=O)c2cnc(SCC(=O)Nc3ccc4c(c3)OCCO4)[nH]c2=O)cc1Cl 1.52%
CCOC(=O)c1c(NC(=O)CSc2cn(CCNC(=O)c3cccc(C(F)(F)F)c3)c3ccccc23)sc2c1CCC2 -5.85%
Cc1ccc2oc(C(=O)N(Cc3ccc(N(C)C)cc3)CC3CCCO3)c(C)c2c1 (stereo not drawn) 2.52%
COc1cccc(C(=O)Nc2nc3ccc(S(=O)(=O)N4CCCC4)cc3s2)c1 -11.3%
O=C(Nc1ccc(Br)cc1)c1cc(-c2cccs2)nc2ccccc12 -16.1%
CN1CCC(=C2c3ccccc3CCc3sccc32)CC1 -16.5%
CC(NC(=O)C1CCN(S(=O)(=O)c2ccc(F)cc2)CC1)c1ccccc1 (stereo not drawn) -5.06%
CN(C)CCNC(=O)C1CCN(c2ncnc3c2nc2n3CCCCC2)CC1 11.2%
O=C(Cn1ncc2c3ccccc3n(Cc3ccc(Cl)cc3)c2c1=O)NCCC1=CCCCC1 -14%
O=C1CSC2(C(=O)N(Cc3ccccc3F)c3ccccc32)N1c1cccc(C(F)(F)F)c1 (stereo not drawn) -41.6%
CC(C)Oc1ccc(C(=O)N2CCC(c3nc4ccccc4o3)CC2)cc1 -8.78%
COc1ccc(-c2cc(C(=O)Oc3ccc(C)cc3)c3ccccc3n2)cc1 -16.5%
Cc1ccc(NS(=O)(=O)c2ccc(-c3cnc(C4CC4)o3)cc2)cc1N(C)C -1.61%
COc1cc(NC(=O)CSc2ncc3c(n2)-c2ccc(Cl)cc2N(Cc2ccccc2)S3(=O)=O)cc(OC)c1 -11.3%
CC(=O)Nc1ccc(NC(=O)CSc2nccn2Cc2ccc3c(c2)OCO3)cc1 -16.4%
CC(C)c1ccc(NC(=O)CSC2=Nc3ccccc3C3=NC(CC(=O)NCc4cccs4)C(=O)N23)cc1 (stereo not drawn) -11.6%
Cc1nc(-c2cccc(F)c2)sc1CCNC(=O)c1c(F)cccc1Cl -14.4%
CCc1ccc(C(=O)COC(=O)C(Cc2c[nH]c3ccccc23)NC(=O)c2ccc(CC)cc2)cc1 (stereo not drawn) -8.6%
COc1ccc(CNC(=O)c2cc3cc4ccc(C)cc4nc3o2)cc1 -8.73%
O=C(Cc1ccccc1)Nc1c(C(=O)c2ccccc2)oc2ccccc12 -9.95%
Cc1ccc(NC(=O)CSc2nnc(-c3nnn(-c4ccc(F)cc4)c3C)o2)cc1Br -13.5%
Cc1ccc(OCC(=O)Nc2nonc2-c2ccc(C)c(C)c2)cc1C -17.7%
Cc1ccc(NC(=O)CN2C(=O)COc3ccc(S(=O)(=O)N4CCCCCC4)cc32)cc1Cl -23.4%
COc1cccc(N2CCN(C(=O)c3cc4c(s3)-c3c(C)cccc3OC4)CC2)c1 -9.09%
CCCCn1c(=NC(=O)C(C)(C)Oc2ccc(Cl)cc2)c(C(=O)OCC)cc2c(=O)n3ccccc3nc21 -28.1%
O=C(Nc1ccc(OC(F)(F)F)cc1)C(Cc1ccccc1)NS(=O)(=O)c1cccc2nsnc12 (stereo not drawn) -16.5%
COc1ccccc1C(=O)Nc1cccc(C(=O)OCc2cc(=O)n3nc(C4CC4)sc3n2)c1 1.61%
Cc1ccc(C)c(CNC(=O)c2ccc3c(c2)nc2n3CCOC2)c1 -13.4%
CC(C)Cc1nn2c(=O)cc(COC(=O)CNC(=O)c3ccc(C(C)(C)C)cc3)nc2s1 -6.99%
CC1CCCN(CCCNC(=O)c2ccc3c(c2)N(Cc2cccc(Cl)c2)C(=O)c2ccccc2S3(=O)=O)C1 (stereo not drawn) -5.06%
Cc1ccc(S(=O)(=O)c2nnn3c2nc(NCc2ccc4c(c2)OCO4)c2sccc23)cc1 20.9%
CCOC(=O)c1c(Nc2ccc(O)cc2)nnc(-c2ccccc2)c1-c1ccccc1 -12.7%
COc1cccc(CNC(=O)Cn2ccc3cc(S(=O)(=O)N4CCCC4)ccc32)c1OC -8.08%
COC(=O)c1ccc(C2c3c(oc4ccc(C)cc4c3=O)C(=O)N2Cc2ccc3c(c2)OCO3)cc1 (stereo not drawn) -2.26%
CCN(CC)S(=O)(=O)c1ccc2c(c1)nc(CN(C)C(=O)Nc1ccc(F)cc1)n2C 16.6%
